Reference: PubChem BioAssay AID686970 (National Center for Advancing Translational Sciences (NCATS), 2013)
Among all 360,000 compounds or so, about 6,000 (1.7%) were called active. Inconclusive means that the source gave no clear call. Such entries were picked first, then a sample of the others. Calls follow the shape of the dose curve; as a rule, active = well fitted cell-killing curve with a large enough effect; inconclusive = small, poorly fitted or top-dose-only effect, or effect the other way; inactive = flat fitted curve, though single readings scatter. No potency is given beside an inconclusive call; the fits are too rough.

assay: qHTS for induction of synthetic lethality in tumor cells producing 2HG: qHTS for the HT-1080-NT fibrosarcoma cell line; conditions: HT-1080-NT fibrosarcoma viability, CellTiter-Glo ATP luminescence, 48 h; activity, negative = less viability: at 46.1 µM (top of the series) unless noted;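 also: NT is the 2HG producing partner of a matched IDH1 knockdown line; nearly all actives have a fitted effect of over 55% in size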;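 as to activity, negative = less viability: 0% = DMSO-treated cells and -100% = media-only wells without cells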
Outline: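 Viability of the 2HG-overproducing fibrosarcoma line after 48 hours of compound exposure at 37 degrees C was determined by luminescence with CellTiter-Glo, and concentration-effect curves were then fitted and categorized.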
Potency is read from the fitted curve at half-maximal effect; tags tell the direction and shape of the fitted curve.

Row | Compound | activity, negative = less viability | Potency
1 | Nn1c(COc2ccccc2F)nnc1SCC(=O)NCC1CCCO1 (centres undefined) | inactive: 0.98% | –
2 | CCc1cccc(C)c1NC(=S)NCCc1c(C)[nH]c2ccc(C)cc12 | inactive: -12.3% | –
3 | Cn1c(SCC(=O)Nc2nccs2)nnc1-c1ccccn1 | – | inconclusive [rising, single point]
4 | COC(=O)c1ccc2nc(-c3ccco3)c(Cc3ccc(C)cc3)n2c1 | – | inconclusive [cytotoxic, single point]
5 | O=C(N/N=C/c1cc([N+](=O)[O-])ccc1Cl)c1cnccn1 | – | active: 4.11 µM
6 | CC(C)C[C@@H]1O[C@H](CCc2ccccc2)Cc2[nH]c(=S)[nH]c(=O)c21 | – | inconclusive [cytotoxic, partial curve]
7 | COc1ccc(C2c3ccc(O)cc3Oc3ncn(Cc4ccco4)c(=N)c32)cc1OC (centres undefined) | – | inconclusive [cytotoxic, single point]
8 | COc1ccc(Cl)cc1NC(=O)NCC1CCN(Cc2cc(C)ccc2C)CC1 | – | inconclusive [cytotoxic, single point]
9 | CC1CCCN(CC(=O)Nc2ccc(S(=O)(=O)NC3CCCCC3)cc2)C1 (centres undefined) | – | inconclusive [cytotoxic, single point]
10 | COc1ccc(C2=NOC(C(=O)NCc3ccco3)C2)cc1 (centres undefined) | – | active: 7.08 µM
11 | C=CCNC(=O)NC(=O)COC(=O)/C=C/c1cccc([N+](=O)[O-])c1 | – | inconclusive [cytotoxic, single point]
12 | COCCNCCCCOc1ccc(Br)cc1C | – | inconclusive [cytotoxic, single point]
13 | COc1cccc(OCc2nc3ncc(Br)cc3[nH]2)c1 | – | active: 2.24 µM
14 | Cc1ccc(S(=O)(=O)NCc2cn3ccccc3n2)c(C)c1 | inactive: -1.48% | –
15 | CC(c1ccccc1)C1CC(=O)N(c2ccc([N+](=O)[O-])cc2)C1=O (centres undefined) | inactive: 1.3% | –
16 | O[Si](CCCN1CCCCC1)(c1ccc(F)cc1)C1CCCCC1 (centres undefined) | – | inconclusive [cytotoxic, single point]
17 | O=C(Nc1ccc(Oc2ccccc2)cc1)c1csc([C@@H]2C[C@H](O)[C@@H](CO)O2)n1 | – | inconclusive [cytotoxic, full curve]
18 | O=c1c(-c2ccco2)nc2ccccc2n1C(CCc1ccccc1)c1nc2ccccc2[nH]1 (centres undefined) | – | inconclusive [cytotoxic, single point]
19 | COC(=O)c1ccccc1NC(=O)c1cnn2c(C(F)F)cc(C3CC3)nc12 | – | inconclusive [cytotoxic, single point]
20 | O=C(CSc1nnc(-c2cccnc2)n1Cc1ccccc1)NCc1ccccc1 | inactive: 11.8% | –
21 | COc1ccc(CCNC(=O)c2nc(-c3cccs3)no2)cc1OC | – | inconclusive [cytotoxic, single point]
22 | COc1ccccc1C(=O)N(CCC1CCCN1C)c1nc2ccccc2s1 (centres undefined) | – | inconclusive [cytotoxic, partial curve]
23 | CC(C)c1ccc(NC(=O)C2Cc3c(-c4ccco4)ccnc3O2)cc1 (centres undefined) | – | inconclusive [cytotoxic, single point]

Row | Compound | activity, negative = less viability | Potency
24 | CCOC(=O)c1[nH]c2cc3c(cc2c1NC(=O)CN1CC(C)CC(C)C1)OCO3 (centres undefined) | – | inconclusive [cytotoxic, partial curve, poor fit]
25 | CCOc1ccc(C(=O)C2CCN(CC(=O)Nc3nccs3)CC2)cc1 | – | inconclusive [cytotoxic, single point]
26 | Cc1ccnc2c1ccc1c(C)ccnc12 | – | active: 13 µM
27 | CCCCNC(=O)c1cn(CC(C)C)c(=O)c2c1c1ccccc1n2C | – | inconclusive [cytotoxic, single point]
28 | CC(=O)Nc1ccc(/C=C(\C#N)C(=O)NCc2ccccc2)cc1 | inactive: 4.08% | –
29 | CN(C)c1ccc(NC(=O)Nc2ccc3c(c2)c(=O)n(C)n3-c2ccccc2)cc1 | – | active: 16.4 µM
30 | Cc1nn(-c2ccccc2)c(C)c1/C=N/NC(=O)c1cc(-c2ccc(Cl)s2)[nH]n1 | – | active: 0.631 µM
31 | Nc1ccc(N2CCCCC2)cc1N1CCCCC1 | – | inconclusive [cytotoxic, partial curve]
32 | CCOc1ccccc1N(C)C(=O)Cn1ncc2c([nH]c3ccc(C)cc32)c1=O | – | inconclusive [cytotoxic, partial curve]
33 | CN(C)CCn1c(=O)n(-c2cccc(Cl)c2)c(=O)c2c3c(sc21)CCCCC3 | – | inconclusive [cytotoxic, partial curve]
34 | O=C(Nc1cccc(OC(F)(F)F)c1)C1Cc2c(-c3ccccc3Oc3ccccc3)ccnc2O1 (centres undefined) | – | inconclusive [cytotoxic, single point]
35 | Nc1nc(SCCO)[nH]c(=O)c1NC(=O)c1ccccc1F | – | inconclusive [rising, single point]
36 | COCc1cc(C)nc(N2CCNCC2)c1C#N | inactive: -0.454% | –
37 | Cn1nc(C(C)(C)C)cc1NC(=O)C1(C)CCN1C(=O)Cc1ccc(-c2ccccc2)cc1 (centres undefined) | – | inconclusive [cytotoxic, single point]
38 | Cc1cc(=O)oc2cc(NC(=O)c3cccc(S(=O)(=O)N(C)C)c3)ccc12 | – | inconclusive [rising, single point]
39 | CCc1nc2ccc(C(=O)N(CC)CCN(C)C)cn2c1N(C)CCCc1ccccc1 | – | inconclusive [cytotoxic, single point]
40 | CC1(C(=O)NCCc2ccccc2)Cc2c(-c3cccc(C(F)(F)F)c3)ccnc2O1 (centres undefined) | – | inconclusive [cytotoxic, partial curve]
41 | O=C(O)c1cccc(NC2=C(Cl)C(=O)c3ccccc3C2=O)c1 | – | inconclusive [cytotoxic, single point]
42 | NC(=S)N=Nc1c(O)n(CC(=O)Nc2ccccc2)c2ccccc12 | – | inconclusive [cytotoxic, single point]
43 | O=S(=O)(Nc1ccc(Cc2ccncc2)cc1)c1ccc(Cl)c(Cl)c1 | – | inconclusive [cytotoxic, single point]
44 | COc1cc(C(=O)OCC(=O)Nc2ccc(S(=O)(=O)NC3=NCCCCC3)cc2)cc(OC)c1OC | inactive: 0.634% | –
45 | Nc1[nH]c(C(=O)c2ccc(Br)cc2)c(-c2ccc(Br)cc2)c1C(=O)NCCc1c[nH]c2ccccc12 | – | inconclusive [cytotoxic, single point]
46 | Fc1ccc(NC(=S)Nc2ccc3nccnc3c2)cc1 | inactive: 5.25% | –

Row | Compound | activity, negative = less viability | Potency
47 | COc1ccc(-c2ccc(CCC(=O)O)n2-c2ccccc2O)cc1 | – | inconclusive [cytotoxic, single point]
48 | CCOc1cc2c(cc1C(C)(C)C)NC(=O)CS2 | – | inconclusive [cytotoxic, single point]
49 | O=C(N/N=C/c1ccccc1O)c1cccc2ccccc12 | – | inconclusive [cytotoxic, partial curve]
50 | CCCN1CNC(=S)N(c2cccc(C)c2C)C1 | – | inconclusive [cytotoxic, single point]
51 | COc1ccc(C(=O)Nc2cccc(C(=O)NCc3ccco3)c2)cc1 | inconclusive: -0.7% [cytotoxic] | –
52 | CC(NC(=S)Nc1cccc(C(F)(F)F)c1)C(C)(C)C (centres undefined) | – | inconclusive [cytotoxic, single point]
53 | CCCCOC(=O)c1ccc(-c2ccc(/C=N/NC(=S)NCC)o2)cc1 | – | active: 2.82 µM
54 | Cc1nc2nc(SCc3ccccc3)[nH]n2c(=O)c1CCC(C)C | inactive: -1.45% | –
55 | COc1cc2c(cc1OC)C(C)N(C(=O)c1cc3c(C)cc(C)cc3[nH]1)CC2 (centres undefined) | – | inconclusive [cytotoxic, full curve]
56 | COc1ccc(N(CC(=O)Nc2cc(C)ccc2C)S(=O)(=O)c2c(C)noc2C)cc1 | inactive: -6.14% | –
57 | OC(c1cc(F)cc(Cl)c1)c1ncc(-c2cccc(C(F)(F)F)c2)[nH]1 (centres undefined) | – | inconclusive [cytotoxic, single point]
58 | Cc1cc(C)c2c(N)c(C(=O)c3ccccc3)sc2n1 | inactive: 16.5% | –
59 | CC1CCC(C(C)C)C(OCC(O)CN2CCCC(C)C2)C1 (centres undefined) | – | inconclusive [cytotoxic, single point]
60 | O=C(CCCOc1ccc(Cl)cc1Cl)N/N=C/c1ccccc1O | – | inconclusive [cytotoxic, single point]
61 | NC(Cc1ccc(Cl)cc1)c1csc(Nc2nccc(C(F)(F)F)n2)n1 (centres undefined) | – | active: 16.4 µM
62 | O=C(N/N=C/c1c[nH]c2ccccc12)C1CC1(c1ccccc1)c1ccccc1 (centres undefined) | – | inconclusive [cytotoxic, single point]
63 | O=C(O/N=C\c1ccc(N2CCCCC2)c([N+](=O)[O-])c1)c1ccc(Cl)cc1Cl | inactive: 0.468% | –
64 | COCCNC(=O)c1ccc2c(c1)ncn2-c1cccc(C)c1 | – | inconclusive [cytotoxic, single point]
65 | CC(C)c1ccccc1NC(=O)COc1ccc(C(=O)NCCc2ccccc2)cc1 | – | inconclusive [cytotoxic, single point]
66 | COc1cccc(/C=N/n2c(N)nc3ccccc32)c1OC | – | inconclusive [cytotoxic, single point]
67 | COC(=O)C1=C(C(=O)OC)[C@@H]2N(C)c3ccc(OC)cc3[C@@]23C[C@@H](C(=O)OC)N(C(=O)c2ccc(Br)cc2)C3=N1 | – | active: 23.1 µM
68 | Cc1cccc(COCC(Cc2ccccc2)N2CCN(C(=O)c3ccc(Cl)c(Cl)c3)CCC2=O)c1 (centres undefined) | inactive: -26.7% | –
69 | CCC(C)[C@@H](CN(N=O)[C@@H](Cc1ccccc1)CN(C)N=O)N(CCc1ccccc1)N=O (some centres undefined) | inactive: 0% | –
